Data on 10 molecules can be found in paper PMC3988004.

Protein sequences, listed by entry. Tags and fused reporters are not part of them.
UniProt Q9WTL8: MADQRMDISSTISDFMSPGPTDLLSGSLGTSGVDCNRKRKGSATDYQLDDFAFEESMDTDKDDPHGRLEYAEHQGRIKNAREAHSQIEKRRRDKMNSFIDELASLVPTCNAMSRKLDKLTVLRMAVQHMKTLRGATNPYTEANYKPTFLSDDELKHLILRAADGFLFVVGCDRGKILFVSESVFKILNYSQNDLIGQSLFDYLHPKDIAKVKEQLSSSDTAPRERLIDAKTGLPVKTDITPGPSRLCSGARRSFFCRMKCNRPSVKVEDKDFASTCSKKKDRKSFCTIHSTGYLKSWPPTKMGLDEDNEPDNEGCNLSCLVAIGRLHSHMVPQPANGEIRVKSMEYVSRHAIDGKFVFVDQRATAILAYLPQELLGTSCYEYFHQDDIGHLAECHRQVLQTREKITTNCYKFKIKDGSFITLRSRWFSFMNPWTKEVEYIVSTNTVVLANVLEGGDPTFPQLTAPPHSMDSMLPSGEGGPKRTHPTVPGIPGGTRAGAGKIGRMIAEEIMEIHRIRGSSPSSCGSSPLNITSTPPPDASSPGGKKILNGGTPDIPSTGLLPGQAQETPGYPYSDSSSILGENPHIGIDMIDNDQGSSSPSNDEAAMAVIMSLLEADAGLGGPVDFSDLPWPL
UniProt O35185: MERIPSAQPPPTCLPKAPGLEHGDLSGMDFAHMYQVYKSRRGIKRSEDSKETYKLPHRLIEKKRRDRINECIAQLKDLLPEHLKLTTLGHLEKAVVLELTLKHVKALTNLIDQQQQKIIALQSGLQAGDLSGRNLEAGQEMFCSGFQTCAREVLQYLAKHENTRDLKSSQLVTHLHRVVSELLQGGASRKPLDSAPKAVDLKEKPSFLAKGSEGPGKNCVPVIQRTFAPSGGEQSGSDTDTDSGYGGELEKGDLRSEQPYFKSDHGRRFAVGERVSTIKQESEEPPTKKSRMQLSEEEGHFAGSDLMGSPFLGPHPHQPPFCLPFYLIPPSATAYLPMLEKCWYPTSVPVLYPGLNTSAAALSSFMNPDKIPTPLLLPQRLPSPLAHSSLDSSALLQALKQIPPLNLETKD
UniProt Q99PV5: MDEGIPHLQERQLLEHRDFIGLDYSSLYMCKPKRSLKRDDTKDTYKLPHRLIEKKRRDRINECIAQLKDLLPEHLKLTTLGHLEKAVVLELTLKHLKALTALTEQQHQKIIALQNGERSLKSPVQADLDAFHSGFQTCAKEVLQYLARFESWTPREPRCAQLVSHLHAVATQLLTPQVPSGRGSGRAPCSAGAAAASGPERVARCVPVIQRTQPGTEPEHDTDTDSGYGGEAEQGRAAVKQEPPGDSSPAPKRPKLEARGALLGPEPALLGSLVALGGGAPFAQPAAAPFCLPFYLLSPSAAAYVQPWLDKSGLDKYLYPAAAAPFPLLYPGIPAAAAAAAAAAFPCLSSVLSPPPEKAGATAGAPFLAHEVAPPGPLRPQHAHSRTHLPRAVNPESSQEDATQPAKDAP
UniProt O09106: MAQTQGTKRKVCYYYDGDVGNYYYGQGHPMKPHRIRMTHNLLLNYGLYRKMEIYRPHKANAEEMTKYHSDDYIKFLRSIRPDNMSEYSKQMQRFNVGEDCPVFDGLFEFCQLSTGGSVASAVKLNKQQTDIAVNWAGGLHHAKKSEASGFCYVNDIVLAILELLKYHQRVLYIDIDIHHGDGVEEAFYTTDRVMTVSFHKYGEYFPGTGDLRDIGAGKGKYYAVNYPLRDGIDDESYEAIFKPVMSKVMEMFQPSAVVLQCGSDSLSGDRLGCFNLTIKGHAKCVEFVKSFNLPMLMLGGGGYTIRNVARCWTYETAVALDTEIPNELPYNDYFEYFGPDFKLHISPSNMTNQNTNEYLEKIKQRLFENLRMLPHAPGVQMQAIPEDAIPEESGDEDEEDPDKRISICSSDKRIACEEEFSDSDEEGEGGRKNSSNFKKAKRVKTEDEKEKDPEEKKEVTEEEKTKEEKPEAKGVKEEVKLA
UniProt O35973: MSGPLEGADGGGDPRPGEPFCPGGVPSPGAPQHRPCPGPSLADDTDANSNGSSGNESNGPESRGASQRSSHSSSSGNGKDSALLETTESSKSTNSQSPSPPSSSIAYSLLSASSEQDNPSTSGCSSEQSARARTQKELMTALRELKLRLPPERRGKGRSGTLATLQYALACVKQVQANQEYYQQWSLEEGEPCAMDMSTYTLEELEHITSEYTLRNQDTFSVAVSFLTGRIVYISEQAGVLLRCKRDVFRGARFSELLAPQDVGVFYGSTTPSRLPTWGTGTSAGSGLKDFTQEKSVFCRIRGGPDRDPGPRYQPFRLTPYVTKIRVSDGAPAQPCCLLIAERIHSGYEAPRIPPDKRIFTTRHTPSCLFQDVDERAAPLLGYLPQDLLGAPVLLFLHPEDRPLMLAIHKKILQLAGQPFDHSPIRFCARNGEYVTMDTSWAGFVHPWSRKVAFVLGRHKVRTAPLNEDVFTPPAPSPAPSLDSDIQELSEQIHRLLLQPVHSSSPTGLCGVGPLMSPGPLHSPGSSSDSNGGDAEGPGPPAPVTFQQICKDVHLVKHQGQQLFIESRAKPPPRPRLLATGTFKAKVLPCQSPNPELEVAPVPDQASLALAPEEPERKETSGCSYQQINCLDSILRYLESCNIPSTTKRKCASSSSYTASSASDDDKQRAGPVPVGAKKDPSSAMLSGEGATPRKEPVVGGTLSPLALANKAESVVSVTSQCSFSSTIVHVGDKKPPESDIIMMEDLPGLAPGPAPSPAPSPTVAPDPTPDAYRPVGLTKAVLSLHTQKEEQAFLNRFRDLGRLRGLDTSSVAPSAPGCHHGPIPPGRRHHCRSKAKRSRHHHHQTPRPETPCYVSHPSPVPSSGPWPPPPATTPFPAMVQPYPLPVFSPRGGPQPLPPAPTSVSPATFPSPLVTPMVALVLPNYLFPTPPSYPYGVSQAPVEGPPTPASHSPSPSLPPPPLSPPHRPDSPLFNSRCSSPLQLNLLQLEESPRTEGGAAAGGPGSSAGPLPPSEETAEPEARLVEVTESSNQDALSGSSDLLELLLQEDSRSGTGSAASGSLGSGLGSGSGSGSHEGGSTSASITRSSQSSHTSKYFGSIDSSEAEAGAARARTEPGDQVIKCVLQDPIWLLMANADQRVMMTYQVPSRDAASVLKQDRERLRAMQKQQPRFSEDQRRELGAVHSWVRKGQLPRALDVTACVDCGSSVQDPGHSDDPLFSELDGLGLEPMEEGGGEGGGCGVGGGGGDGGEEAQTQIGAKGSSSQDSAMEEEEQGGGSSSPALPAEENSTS
UniProt O54943: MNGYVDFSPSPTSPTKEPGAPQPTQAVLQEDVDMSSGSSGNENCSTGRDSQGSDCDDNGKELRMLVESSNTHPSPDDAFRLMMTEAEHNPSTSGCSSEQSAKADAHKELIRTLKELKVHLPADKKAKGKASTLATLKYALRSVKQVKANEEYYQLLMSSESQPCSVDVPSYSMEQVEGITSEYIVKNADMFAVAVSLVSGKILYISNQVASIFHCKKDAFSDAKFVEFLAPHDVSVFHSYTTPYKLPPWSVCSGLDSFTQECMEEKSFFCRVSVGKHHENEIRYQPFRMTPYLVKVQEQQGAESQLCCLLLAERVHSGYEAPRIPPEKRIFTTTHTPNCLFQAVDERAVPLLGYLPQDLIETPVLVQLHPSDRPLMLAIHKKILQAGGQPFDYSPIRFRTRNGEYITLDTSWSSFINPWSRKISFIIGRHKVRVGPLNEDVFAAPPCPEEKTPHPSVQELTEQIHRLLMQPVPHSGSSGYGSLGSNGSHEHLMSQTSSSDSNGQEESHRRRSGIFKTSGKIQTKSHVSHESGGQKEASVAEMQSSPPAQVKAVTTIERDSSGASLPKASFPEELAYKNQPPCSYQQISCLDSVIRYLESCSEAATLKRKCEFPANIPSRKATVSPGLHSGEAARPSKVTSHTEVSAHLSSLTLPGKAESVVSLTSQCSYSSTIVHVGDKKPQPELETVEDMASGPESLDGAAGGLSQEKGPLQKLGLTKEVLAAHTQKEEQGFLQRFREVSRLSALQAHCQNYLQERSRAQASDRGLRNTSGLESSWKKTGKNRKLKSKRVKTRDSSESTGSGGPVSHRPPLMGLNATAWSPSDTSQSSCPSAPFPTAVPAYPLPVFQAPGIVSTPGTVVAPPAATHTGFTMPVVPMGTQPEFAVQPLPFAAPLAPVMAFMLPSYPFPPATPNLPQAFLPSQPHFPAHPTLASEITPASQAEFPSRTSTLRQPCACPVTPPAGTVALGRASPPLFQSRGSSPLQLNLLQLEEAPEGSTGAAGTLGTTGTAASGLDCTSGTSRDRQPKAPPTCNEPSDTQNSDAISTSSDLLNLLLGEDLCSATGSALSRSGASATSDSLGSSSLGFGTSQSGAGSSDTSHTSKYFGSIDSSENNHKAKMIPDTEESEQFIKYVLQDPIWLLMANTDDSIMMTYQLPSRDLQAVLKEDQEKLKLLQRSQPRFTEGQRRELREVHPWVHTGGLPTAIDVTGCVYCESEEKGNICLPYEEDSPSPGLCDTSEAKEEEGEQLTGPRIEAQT
UniProt P06537: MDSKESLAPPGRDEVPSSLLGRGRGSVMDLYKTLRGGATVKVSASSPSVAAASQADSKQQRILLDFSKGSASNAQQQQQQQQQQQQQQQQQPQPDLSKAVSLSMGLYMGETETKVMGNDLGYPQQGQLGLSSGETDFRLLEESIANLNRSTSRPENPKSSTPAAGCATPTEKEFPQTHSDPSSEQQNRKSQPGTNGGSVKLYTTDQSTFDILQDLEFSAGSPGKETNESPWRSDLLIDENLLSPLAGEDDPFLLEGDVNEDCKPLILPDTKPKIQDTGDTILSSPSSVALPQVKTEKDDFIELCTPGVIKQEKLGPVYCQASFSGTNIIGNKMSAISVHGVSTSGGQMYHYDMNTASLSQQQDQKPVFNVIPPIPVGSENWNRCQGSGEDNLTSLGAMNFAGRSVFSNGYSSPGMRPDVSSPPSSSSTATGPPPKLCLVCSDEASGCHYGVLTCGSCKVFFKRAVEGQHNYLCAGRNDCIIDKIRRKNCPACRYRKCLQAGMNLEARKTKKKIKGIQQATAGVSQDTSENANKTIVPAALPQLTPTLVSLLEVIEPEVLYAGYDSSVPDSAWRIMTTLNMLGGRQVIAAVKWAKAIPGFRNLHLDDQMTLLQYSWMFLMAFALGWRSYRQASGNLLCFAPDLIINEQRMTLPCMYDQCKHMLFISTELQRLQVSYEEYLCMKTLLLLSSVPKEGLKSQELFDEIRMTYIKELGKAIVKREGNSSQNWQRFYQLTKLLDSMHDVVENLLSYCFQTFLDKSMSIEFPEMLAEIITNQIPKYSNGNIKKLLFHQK

These are yes or no findings as the source states them, for the method shown. Binding seen in cells or lysates may run through a third protein. Some results given as binding are weak or reduced against the parent protein; the word gives no strength. For some of these results: Sequences can lack the tags named with a protein.

In experiment [1] the target is T1, CHRONO (endogenous, mouse liver) (mouse (endogenous in mouse liver)) (UniProt Q3TQ03).
T1 sequence: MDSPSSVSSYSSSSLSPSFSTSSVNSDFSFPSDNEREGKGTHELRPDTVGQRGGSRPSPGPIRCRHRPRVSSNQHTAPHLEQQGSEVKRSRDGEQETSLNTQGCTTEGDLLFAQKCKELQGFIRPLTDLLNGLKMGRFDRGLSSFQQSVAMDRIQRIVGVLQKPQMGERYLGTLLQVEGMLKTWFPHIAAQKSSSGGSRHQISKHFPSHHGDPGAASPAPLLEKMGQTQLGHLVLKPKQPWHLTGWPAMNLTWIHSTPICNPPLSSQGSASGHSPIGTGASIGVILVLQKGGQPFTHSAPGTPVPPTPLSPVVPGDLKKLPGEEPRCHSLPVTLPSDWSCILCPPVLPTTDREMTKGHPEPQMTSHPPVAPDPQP
Nature of the experiment: co-IP; endogenous proteins; IP with the CHRONO antibody from mouse liver lysate, blot for BMAL1; Chrono-deficient mouse liver as control.

Experiment [2] deals with T2, CHRONO (tagged, expressed in COS7 cells) (mouse) (UniProt Q3TQ03).
T2 sequence: T1 sequence
Nature of the experiment: co-IP; COS7 cells transfected with tagged proteins, lysed in TNE buffer with protease inhibitor; precleared with Dynabeads Protein G; IP with anti-HA, anti-Flag or anti-c-Myc antibodies; Western blot with anti-tag antibodies.

The next experiment has as its target T3, CHRONO–HA (mouse) (UniProt Q3TQ03).
T3 sequence: T1 sequence
The experiment is described as above.

Experiment [3] concerns the target T1, CHRONO (endogenous, mouse liver) (mouse (endogenous in mouse liver)). Nature of the experiment: co-IP; endogenous proteins; IP-Western from WT mouse liver at ZT 6 and 12.

With “BMAL1 (endogenous, mouse liver) (from UniProt Q9WTL8 1-632)”, the binding result in experiment [1] was “binds”.

Take “BMAL1 (tagged, expressed in COS7 cells) (from UniProt Q9WTL8 1-632)”: the binding entry in experiment [2] is given as “binds”.

Regarding “DEC1 (tagged, expressed in COS7 cells) (from UniProt O35185 1-411)”, the binding entry in experiment [2] was “no binding”.

On to “DEC2 (tagged, expressed in COS7 cells) (from UniProt Q99PV5 1-410)”, for which the binding entry in experiment [2] is “binds”.

As for “HDAC1–FLAG (from UniProt O09106 1-482) (enzyme)”, in the experiment with CHRONO–HA (mouse), the binding entry is “binds”.

“PER1 (tagged, expressed in COS7 cells) (from UniProt O35973 1-1291)”: in experiment [2], the binding entry was “no binding”.

On to “PER2 (tagged, expressed in COS7 cells) (from UniProt O54943 1-1257)”, for which the binding result in experiment [2] was “binds”.

“glucocorticoid receptor (endogenous, mouse liver) (from UniProt P06537 1-792)”: in experiment [3], the binding entry is “binds”.

B1: CRY2 (tagged, expressed in COS7 cells) (protein, UniProt Q9R194 1-592)
chain: MAAAAVVAATVPAQSMGADGASSVHWFRKGLRLHDNPALLAAVRGARCVRCVYILDPWFAASSSVGINRWRFLLQSLEDLDTSLRKLNSRLFVVRGQPADVFPRLFKEWGVTRLTFEYDSEPFGKERDAAIMKMAKEAGVEVVTENSHTLYDLDRIIELNGQKPPLTYKRFQALISRMELPKKPAVAVSSQQMESCRAEIQENHDDTYGVPSLEELGFPTEGLGPAVWQGGETEALARLDKHLERKAWVANYERPRMNANSLLASPTGLSPYLRFGCLSCRLFYYRLWDLYKKVKRNSTPPLSLFGQLLWREFFYTAATNNPRFDRMEGNPICIQIPWDRNPEALAKWAEGKTGFPWIDAIMTQLRQEGWIHHLARHAVACFLTRGDLWVSWESGVRVFDELLLDADFSVNAGSWMWLSCSAFFQQFFHCYCPVGFGRRTDPSGDYIRRYLPKLKGFPSRYIYEPWNAPESVQKAAKCIIGVDYPRPIVNHAETSRLNIERMKQIYQQLSRYRGLCLLASVPSCVEDLSHPVAEPGSSQAGSISNTGPRALSSGPASPKRKLEAAEEPPGEELTKRARVTEMPTQEPASKDS
On to B1, for which the binding result in experiment [2] is listed as “binds”.

B2: CRY1 (tagged, expressed in COS7 cells) (protein, UniProt P97784 1-606)
chain: MGVNAVHWFRKGLRLHDNPALKECIQGADTIRCVYILDPWFAGSSNVGINRWRFLLQCLEDLDANLRKLNSRLFVIRGQPADVFPRLFKEWNITKLSIEYDSEPFGKERDAAIKKLATEAGVEVIVRISHTLYDLDKIIELNGGQPPLTYKRFQTLVSKMEPLEMPADTITSDVIGKCMTPLSDDHDEKYGVPSLEELGFDTDGLSSAVWPGGETEALTRLERHLERKAWVANFERPRMNANSLLASPTGLSPYLRFGCLSCRLFYFKLTDLYKKVKKNSSPPLSLYGQLLWREFFYTAATNNPRFDKMEGNPICVQIPWDKNPEALAKWAEGRTGFPWIDAIMTQLRQEGWIHHLARHAVACFLTRGDLWISWEEGMKVFEELLLDADWSINAGSWMWLSCSSFFQQFFHCYCPVGFGRRTDPNGDYIRRYLPVLRGFPAKYIYDPWNAPEGIQKVAKCLIGVNYPKPMVNHAEASRLNIERMKQIYQQLSRYRGLGLLASVPSNSNGNGGLMGYAPGENVPSCSSSGNGGLMGYAPGENVPSCSGGNCSQGSGILHYAHGDSQQTHSLKQGRSSAGTGLSSGKRPSQEEDAQSVGPKVQRQSSN
For B2, in experiment [2], the binding entry is “no binding”.
